The supplement of paper PMC8728848
The list shows a part of the results.

How the values were obtained:
Experiment in all cases: glycan array binding signal (z-score within array); higher = stronger binding
Details in all cases: glycan notation: IUPAC condensed, linker removed
[1] = biological target: Gal(b1-3)[Fuc(a1-4)]GlcNAc
Method in brief: (§1)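 Glycan array data were curated from 3228 arrays in the Consortium for Functional Glycomics database and kept only where the protein sequence was available. Glycan names were converted to IUPAC-condensed notation, and columns mapping to the same glycan were averaged. The binding signal is a within-array Z-score, averaged across arrays of the same protein sequence at different concentrations or buffers and across linkers. Negative Z-scores can be read as non-binding.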

[2] = biological target: Gal(b1-3)[Fuc(a1-4)]GlcNAc(b1-2)Man
Method in brief: as §1

[3] = biological target: Gal(b1-3)[Fuc(a1-4)]GlcNAc(b1-2)Man(a1-3)[Gal(b1-3)[Fuc(a1-4)]GlcNAc(b1-2)Man(a1-6)]Man(b1-4)GlcNAc(b1-4)GlcNAc
Method in brief: as §1

[4] = biological target: Gal(b1-3)[Fuc(a1-4)]GlcNAc(b1-2)Man(a1-3)[Gal(b1-3)[Fuc(a1-4)]GlcNAc(b1-2)Man(a1-6)]Man(b1-4)GlcNAc(b1-4)[Fuc(a1-6)]GlcNAc
Method in brief: as §1

[5] = biological target: Gal(b1-3)[Fuc(a1-4)]GlcNAc(b1-3)Gal(b1-3)[Fuc(a1-4)]GlcNAc
Method in brief: as §1

[6] = biological target: Gal(b1-3)[Fuc(a1-4)]GlcNAc(b1-3)Gal(b1-4)GlcNAc
Method in brief: as §1

[7] = biological target: Gal(b1-3)[Fuc(a1-4)]GlcNAc(b1-3)Gal(b1-4)[Fuc(a1-3)]GlcNAc
Method in brief: as §1

[8] = biological target: Gal(b1-3)[Fuc(a1-4)]GlcNAc(b1-6)GalNAc
Method in brief: as §1

[9] = biological target: Gal(b1-3)[GlcNAc(b1-6)]GalNAc
Method in brief: as §1

[10] = biological target: Gal(b1-3)[Neu5Ac(a2-6)]GalNAc
Method in brief: as §1

[11] = biological target: Gal(b1-3)[Neu5Ac(a2-6)]GlcNAc(b1-4)Gal(b1-4)Glc
Method in brief: as §1

[12] = biological target: Gal(b1-3)[Neu5Ac(a2-6)]GlcNAc(b1-6)Gal(b1-4)Glc
Method in brief: as §1

[13] = biological target: Gal(b1-3)[Neu5Ac(b2-6)]GalNAc
Method in brief: as §1

Gal(b1-4)Gal = biological target: Gal(b1-4)Gal
Method in brief: as §1

[14] = biological target: Gal(b1-4)GalNAc(a1-3)[Fuc(a1-2)]Gal(b1-4)GlcNAc
Method in brief: as §1

[15] = biological target: Gal(b1-4)GalNAc(b1-3)[Fuc(a1-2)]Gal(b1-4)GlcNAc
Method in brief: as §1

Gal(b1-4)Glc = biological target: Gal(b1-4)Glc
Method in brief: as §1

Gal(b1-4)Glc6S = biological target: Gal(b1-4)Glc6S
Method in brief: as §1

Gal(b1-4)GlcNAc = biological target: Gal(b1-4)GlcNAc
Method in brief: as §1

[16] = biological target: Gal(b1-4)GlcNAc(a1-6)Gal(b1-4)GlcNAc
Method in brief: as §1

Gal(b1-4)GlcNAc(b1-2)Man = biological target: Gal(b1-4)GlcNAc(b1-2)Man
Method in brief: as §1

[17] = biological target: Gal(b1-4)GlcNAc(b1-2)Man(a1-3)Man(b1-4)GlcNAc(b1-4)GlcNAc
Method in brief: as §1

[18] = biological target: Gal(b1-4)GlcNAc(b1-2)Man(a1-3)[Gal(b1-4)GlcNAc(b1-2)Man(a1-6)]Man(b1-4)GlcNAc(b1-4)GlcNAc
Method in brief: as §1

[19] = biological target: Gal(b1-4)GlcNAc(b1-2)Man(a1-3)[Gal(b1-4)GlcNAc(b1-2)Man(a1-6)]Man(b1-4)GlcNAc(b1-4)[Fuc(a1-6)]GlcNAc
Method in brief: as §1

[20] = biological target: Gal(b1-4)GlcNAc(b1-2)Man(a1-3)[Gal(b1-4)GlcNAc(b1-2)Man(a1-6)][Gal(b1-4)GlcNAc(b1-4)]Man(b1-4)GlcNAc(b1-4)[Fuc(a1-6)]GlcNAc
Method in brief: as §1

[21] = biological target: Gal(b1-4)GlcNAc(b1-2)Man(a1-3)[Gal(b1-4)GlcNAc(b1-2)Man(a1-6)][GlcNAc(b1-4)]Man(b1-4)GlcNAc(b1-4)[Fuc(a1-6)]GlcNAc
Method in brief: as §1

[22] = biological target: Gal(b1-4)GlcNAc(b1-2)Man(a1-3)[GlcNAc(b1-2)Man(a1-6)]Man(b1-4)GlcNAc(b1-4)GlcNAc
Method in brief: as §1

[23] = biological target: Gal(b1-4)GlcNAc(b1-2)Man(a1-3)[GlcNAc(b1-4)][Gal(b1-4)GlcNAc(b1-2)Man(a1-6)]Man(b1-4)GlcNAc(b1-4)GlcNAc
Method in brief: as §1

[24] = biological target: Gal(b1-4)GlcNAc(b1-2)Man(a1-3)[Man(a1-6)]Man(b1-4)GlcNAc(b1-4)GlcNAc
Method in brief: as §1

[25] = biological target: Gal(b1-4)GlcNAc(b1-2)Man(a1-6)Man(b1-4)GlcNAc(b1-4)GlcNAc
Method in brief: as §1

[26] = biological target: Gal(b1-4)GlcNAc(b1-2)Man(a1-6)[GlcNAc(b1-2)Man(a1-3)]Man(b1-4)GlcNAc(b1-4)GlcNAc
Method in brief: as §1

[27] = biological target: Gal(b1-4)GlcNAc(b1-2)Man(a1-6)[Man(a1-3)]Man(b1-4)GlcNAc(b1-4)GlcNAc
Method in brief: as §1

[28] = biological target: Gal(b1-4)GlcNAc(b1-2)[Gal(b1-4)GlcNAc(b1-4)]Man(a1-3)[Gal(b1-4)GlcNAc(b1-2)Man(a1-6)]Man(b1-4)GlcNAc(b1-4)GlcNAc
Method in brief: as §1

[29] = biological target: Gal(b1-4)GlcNAc(b1-2)[Gal(b1-4)GlcNAc(b1-4)]Man(a1-3)[Gal(b1-4)GlcNAc(b1-2)[Gal(b1-4)GlcNAc(b1-6)]Man(a1-6)]Man(b1-4)GlcNAc(b1-4)GlcNAc
Method in brief: as §1

[30] = biological target: Gal(b1-4)GlcNAc(b1-2)[Gal(b1-4)GlcNAc(b1-4)]Man(a1-3)[GlcNAc(b1-4)][Gal(b1-4)GlcNAc(b1-2)Man(a1-6)]Man(b1-4)GlcNAc(b1-4)GlcNAc
Method in brief: as §1

[31] = biological target: Gal(b1-4)GlcNAc(b1-2)[Gal(b1-4)GlcNAc(b1-4)]Man(a1-3)[GlcNAc(b1-4)][Gal(b1-4)GlcNAc(b1-2)[Gal(b1-4)GlcNAc(b1-6)]Man(a1-6)]Man(b1-4)GlcNAc(b1-4)GlcNAc
Method in brief: as §1

[32] = biological target: Gal(b1-4)GlcNAc(b1-2)[Gal(b1-4)GlcNAc(b1-6)]Man(a1-6)[Gal(b1-4)GlcNAc(b1-2)Man(a1-3)]Man(b1-4)GlcNAc(b1-4)GlcNAc
Method in brief: as §1

[33] = biological target: Gal(b1-4)GlcNAc(b1-2)[Gal(b1-4)GlcNAc(b1-6)]Man(a1-6)[Gal(b1-4)GlcNAc(b1-2)Man(a1-3)]Man(b1-4)GlcNAc(b1-4)[Fuc(a1-6)]GlcNAc
Method in brief: as §1

[34] = biological target: Gal(b1-4)GlcNAc(b1-2)[Gal(b1-4)GlcNAc(b1-6)]Man(a1-6)[GlcNAc(b1-4)][Gal(b1-4)GlcNAc(b1-2)Man(a1-3)]Man(b1-4)GlcNAc(b1-4)GlcNAc
Method in brief: as §1

[35] = biological target: Gal(b1-4)GlcNAc(b1-2)[Gal(b1-4)GlcNAc(b1-6)]Man(a1-6)[GlcNAc(b1-4)][Gal(b1-4)GlcNAc(b1-2)[Gal(b1-4)GlcNAc(b1-4)]Man(a1-3)]Man(b1-4)GlcNAc(b1-4)[Fuc(a1-6)]GlcNAc
Method in brief: as §1

[36] = biological target: Gal(b1-4)GlcNAc(b1-3)Gal(b1-3)GalNAc
Method in brief: as §1

[37] = biological target: Gal(b1-4)GlcNAc(b1-3)Gal(b1-3)GlcNAc
Method in brief: as §1

[38] = biological target: Gal(b1-4)GlcNAc(b1-3)Gal(b1-4)Glc
Method in brief: as §1

[39] = biological target: Gal(b1-4)GlcNAc(b1-3)Gal(b1-4)GlcNAc
Method in brief: as §1

[40] = biological target: Gal(b1-4)GlcNAc(b1-3)Gal(b1-4)GlcNAc(b1-2)Man(a1-3)[Gal(b1-4)GlcNAc(b1-3)Gal(b1-4)GlcNAc(b1-2)Man(a1-6)]Man(b1-4)GlcNAc(b1-4)GlcNAc
Method in brief: as §1

B1: GNA (Galanthus nivalis), P30617 (protein)
chain: MAKASLLILAAIFLGVITPSCLSDNILYSGETLSTGEFLNYGSFVFIMQEDCNLVLYDVDKPIWATNTGGLSRSCFLSMQTDGNLVVYNPSNKPIWASNTGGQNGNYVCILQKDRNVVIYGTDRWATGTHTGLVGIPASPPSEKYPTAGKIKLVTAK
glycan array binding signal (z-score) [1]: -0.169 | glycan array binding signal (z-score) [2]: -0.156 | glycan array binding signal (z-score) [3]: 0.074 | glycan array binding signal (z-score) [4]: 0.912 | glycan array binding signal (z-score) [5]: -0.114 | glycan array binding signal (z-score) [6]: -0.366 | glycan array binding signal (z-score) [7]: -0.257 | glycan array binding signal (z-score) [8]: -0.1 | glycan array binding signal (z-score) [9]: -0.166 | glycan array binding signal (z-score) [10]: -0.177 | glycan array binding signal (z-score) [11]: -0.195 | glycan array binding signal (z-score) [12]: -0.117 | glycan array binding signal (z-score) [13]: -0.139 | glycan array binding signal (z-score) (Gal(b1-4)Gal): -0.161 | glycan array binding signal (z-score) [14]: -0.192 | glycan array binding signal (z-score) [15]: -0.157 | glycan array binding signal (z-score) (Gal(b1-4)Glc): -0.163 | glycan array binding signal (z-score) (Gal(b1-4)Glc6S): -0.124 | glycan array binding signal (z-score) (Gal(b1-4)GlcNAc): -0.172 | glycan array binding signal (z-score) [16]: -0.17 | glycan array binding signal (z-score) (Gal(b1-4)GlcNAc(b1-2)Man): -0.167 | glycan array binding signal (z-score) [17]: 0.804 | glycan array binding signal (z-score) [18]: 0.28 | glycan array binding signal (z-score) [19]: -0.031 | glycan array binding signal (z-score) [20]: -0.178 | glycan array binding signal (z-score) [21]: -0.186 | glycan array binding signal (z-score) [22]: 0.488 | glycan array binding signal (z-score) [23]: -0.172 | glycan array binding signal (z-score) [24]: 1.7 | glycan array binding signal (z-score) [25]: -0.171 | glycan array binding signal (z-score) [26]: 0.345 | glycan array binding signal (z-score) [27]: 3.11 | glycan array binding signal (z-score) [28]: -0.05 | glycan array binding signal (z-score) [29]: 0.166 | glycan array binding signal (z-score) [30]: -0.167 | glycan array binding signal (z-score) [31]: -0.176 | glycan array binding signal (z-score) [32]: -0.183 | glycan array binding signal (z-score) [33]: -0.161 | glycan array binding signal (z-score) [34]: -0.156 | glycan array binding signal (z-score) [35]: -0.172 | glycan array binding signal (z-score) [36]: -0.118 | glycan array binding signal (z-score) [37]: -0.174 | glycan array binding signal (z-score) [38]: -0.076 | glycan array binding signal (z-score) [39]: -0.131 | glycan array binding signal (z-score) [40]: 0.05
